Assay results published in the supplement of paper PMC10369915.
Some of the results follow. Cut-off read from the data, not from the text of the source: active = 3.2 or more and inactive = the rest. The signal is at background level for most entries.

Legend:
Experiment in all cases: enrichment score (SH2-bound / input frequency) (ratio); bacterial display of known human phosphotyrosine sites (pTyr-Var adds point mutants) read by sequencing; higher = stronger binding; tyrosines were phosphorylated by kinases first
Details in all cases: peptide library: pTyr-Var
[1] = target: SHP2 C-SH2 domain E139D
[2] = target: SHP2 C-SH2 domain wild-type
[3] = target: SHP2 N-SH2 domain L43F
[4] = target: SHP2 N-SH2 domain T42A
[5] = target: SHP2 N-SH2 domain T52S
[6] = target: SHP2 N-SH2 domain wild-type

Measured: enrichment score
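Note: displayed peptides selected on beads carrying the immobilized SH2 domain, with library peptides lacking any tyrosine serving as negative controls.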

TLLAFYMGNFS [GLB1_Y552_P549L]
inactive: [1] 1.93 | [2] 1.92 | [3] 1.21 | [4] 1.39 | [5] 1.7 | [6] 2.23

LPEVSYVKAID [GLRA1_Y307_K304E]
inactive: [1] 0.905 | [2] 0.821 | [3] 1.37 | [4] 1.48 | [5] 1.13 | [6] 0.602

LPKVSYMKAID [GLRA1_Y307_V308M]
inactive: [1] 0.909 | [2] 0.918 | [3] 1 | [4] 0.961 | [5] 1.02 | [6] 0.903

RCLKDYGEFEV [GINS1_Y156]
inactive: [1] 0.988 | [2] 1.07 | [3] 1.13 | [4] 0.772 | [5] 1 | [6] 1.09

RLSPEYKQNEI [GJB1_Y243]
inactive: [1] 0.635 | [2] 0.659 | [3] 0.79 | [4] 0.413 | [5] 0.856 | [6] 0.609

VNFGAYINDFN [GLB1_Y488_K493N_YF]
inactive: [1] 1.06 | [2] 1.31 | [3] 0.923 | [4] 0.923 | [5] 1.05 | [6] 1.57

QEKKGYFEDRC [GLUL_Y336_R341C]
inactive: [1] 0.61 | [2] 0.378 | [3] 0.636 | [4] 0.389 | [5] 0.566 | [6] 0.644

MHLRQYKLLGG [GNAS_Y391_E392K]
inactive: [1] 0.77 | [2] 0.666 | [3] 0.612 | [4] 0.678 | [5] 0.772 | [6] 0.708

EVESPYEVRDF [GIGYF2_Y1168_H1171R_YF]
inactive: [1] 0.774 | [2] 0.682 | [3] 0.77 | [4] 0.701 | [5] 0.708 | [6] 0.703

SGVNKYSTAFG [GJB3_Y16]
inactive: [1] 0.921 | [2] 0.648 | [3] 0.762 | [4] 0.577 | [5] 0.669 | [6] 0.779

VNFGAYINFFK [GLB1_Y488_D491Y_YF]
inactive: [1] 1.32 | [2] 1.63 | [3] 1.31 | [4] 1.33 | [5] 1.08 | [6] 1.32

SSSPTYLDLPF [GLI3_Y168_P169L]
inactive: [1] 0.826 | [2] 0.889 | [3] 0.861 | [4] 1.34 | [5] 0.768 | [6] 0.866

MSLPGYKLVTG [GJA1_Y286_P283L]
inactive: [1] 0.918 | [2] 0.824 | [3] 0.903 | [4] 0.884 | [5] 1.09 | [6] 0.982

RISPEYKQNEI [GJB1_Y243_L239I]
inactive: [1] 0.648 | [2] 0.595 | [3] 0.74 | [4] 0.542 | [5] 0.644 | [6] 0.611

IKNFKYGIEEH [GJA1_Y137_K134N]
inactive: [1] 0.794 | [2] 0.583 | [3] 0.58 | [4] 0.505 | [5] 0.655 | [6] 0.807

EVESPYEVHDF [GIGYF2_Y1168_YF]
inactive: [1] 0.666 | [2] 0.777 | [3] 0.76 | [4] 0.754 | [5] 0.733 | [6] 0.854

IKKFKYGIEEH [GJA1_Y137]
inactive: [1] 0.715 | [2] 0.683 | [3] 0.536 | [4] 0.639 | [5] 0.707 | [6] 0.887

ILNANYMAKRL [GLDC_Y839]
inactive: [1] 0.561 | [2] 0.594 | [3] 0.937 | [4] 1.11 | [5] 1.09 | [6] 0.97

SSDPDYLAAVD [GLB1_Y154]
inactive: [1] 0.638 | [2] 0.585 | [3] 0.592 | [4] 0.562 | [5] 0.471 | [6] 0.573

DCVRMYELVHR [GLE1_Y135_G130D]
inactive: [1] 1.31 | [2] 1.52 | [3] 1.4 | [4] 1.06 | [5] 1.04 | [6] 1.32

MHLRQYELLGG [GNAS_Y391]
active: [3] 6.65 | [5] 7.13
inactive: [1] 1.19 | [2] 1.2 | [4] 1.27 | [6] 2.55

GCVRMYELVHR [GLE1_Y135]
inactive: [1] 1.93 | [2] 1.97 | [3] 1.99 | [4] 1.55 | [5] 1.81 | [6] 2

DDERGYRRVRC [GIGYF2_Y268_S273C]
inactive: [1] 0.609 | [2] 0.677 | [3] 0.565 | [4] 0.582 | [5] 0.603 | [6] 0.65

FSDPDYLAAVD [GLB1_Y154_S149F]
inactive: [1] 0.601 | [2] 0.468 | [3] 0.56 | [4] 0.452 | [5] 0.582 | [6] 0.575

VNYGAYINNFK [GLB1_Y488_D491N]
inactive: [1] 1.47 | [2] 1.56 | [3] 1.11 | [4] 2.29 | [5] 1.16 | [6] 1.35

VTRAKYFIRDE [GNAS_Y339]
inactive: [1] 0.638 | [2] 0.545 | [3] 0.663 | [4] 0.619 | [5] 0.838 | [6] 0.783

SVQVEYMKTIL [GLYATL2_Y127_D126E]
inactive: [1] 1 | [2] 1.15 | [3] 0.843 | [4] 2.81 | [5] 1.21 | [6] 1.23

EVESPYEVRDY [GIGYF2_Y1168_H1171R]
inactive: [1] 0.639 | [2] 0.653 | [3] 0.473 | [4] 0.491 | [5] 0.594 | [6] 0.64

SSSPTYPDLPF [GLI3_Y168]
inactive: [1] 0.649 | [2] 0.683 | [3] 0.719 | [4] 0.633 | [5] 0.624 | [6] 0.684

SSYPDYLAAVD [GLB1_Y154_D151Y]
inactive: [1] 1.1 | [2] 0.925 | [3] 1.04 | [4] 0.672 | [5] 0.846 | [6] 0.804

SSFPDYLAAVD [GLB1_Y154_D151Y_YF]
inactive: [1] 0.836 | [2] 0.685 | [3] 0.664 | [4] 0.609 | [5] 0.664 | [6] 0.849

RLKAKYPAATG [GLI3_Y933_A934P]
inactive: [1] 1.23 | [2] 1 | [3] 0.988 | [4] 1.15 | [5] 1.24 | [6] 1.12

IKKFKYRIEEH [GJA1_Y137_G138R]
inactive: [1] 0.669 | [2] 0.672 | [3] 0.644 | [4] 0.623 | [5] 0.723 | [6] 0.927

MGRVNYGAFIN [GLB1_Y485_YF]
inactive: [1] 1.16 | [2] 1.06 | [3] 1.03 | [4] 1.1 | [5] 1.07 | [6] 1.08

VKFGAYINDFK [GLB1_Y488_N484K_YF]
inactive: [1] 1.04 | [2] 1.11 | [3] 0.749 | [4] 1.42 | [5] 1.33 | [6] 1.12

LNLKEYNLVGG [GNAQ_Y356]
inactive: [1] 1.3 | [2] 0.79 | [3] 1.16 | [4] 0.88 | [5] 0.879 | [6] 0.792

VNFGAYINNFK [GLB1_Y488_D491N_YF]
inactive: [1] 1.08 | [2] 1.47 | [3] 1.31 | [4] 0.955 | [5] 0.961 | [6] 1.43
